Data taken from publication PMC6919601, “Identification of Plasmodium dipeptidyl aminopeptidase allosteric inhibitors by high throughput screening” (PLoS ONE, 2019).
The campaign covered roughly 110,000 compounds. About 230 (0.21%) showed an effect of 50% or more. Some of the results follow.

target: DPAP1 (Plasmodium falciparum, UniProt Q8IIJ9); test: primary screen, percent inhibition; read by cleavage of a fluorogenic dipeptide substrate; higher = more effect of the substance; design: species or system P. falciparum D10 trophozoite lysates; single well
Sequence (Q8IIJ9 whole entry, looked up): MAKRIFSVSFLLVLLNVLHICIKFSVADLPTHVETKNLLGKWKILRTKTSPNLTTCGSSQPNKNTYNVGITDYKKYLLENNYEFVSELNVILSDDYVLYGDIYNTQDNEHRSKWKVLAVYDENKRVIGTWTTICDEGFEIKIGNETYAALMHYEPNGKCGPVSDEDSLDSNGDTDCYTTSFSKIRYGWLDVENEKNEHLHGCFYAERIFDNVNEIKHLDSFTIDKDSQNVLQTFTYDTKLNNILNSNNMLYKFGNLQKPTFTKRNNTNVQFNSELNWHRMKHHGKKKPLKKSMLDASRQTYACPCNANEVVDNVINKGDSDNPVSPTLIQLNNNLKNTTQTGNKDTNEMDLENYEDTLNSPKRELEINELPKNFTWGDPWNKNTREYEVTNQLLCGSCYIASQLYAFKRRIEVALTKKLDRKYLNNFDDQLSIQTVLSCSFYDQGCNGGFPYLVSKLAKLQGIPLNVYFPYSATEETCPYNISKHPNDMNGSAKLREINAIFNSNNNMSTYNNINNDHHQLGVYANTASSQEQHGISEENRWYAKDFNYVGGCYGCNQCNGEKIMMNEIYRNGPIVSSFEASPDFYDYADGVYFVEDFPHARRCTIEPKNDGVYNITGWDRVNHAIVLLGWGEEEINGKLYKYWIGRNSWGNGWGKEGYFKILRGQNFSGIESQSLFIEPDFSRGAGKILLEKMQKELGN
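Further: 30 min substrate incubation versus DMSO and 10 µM JCP410 controls.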

Going from `COc1ccc(CNC(=O)CC(NS(=O)(=O)c2ccc(Br)cc2)c2ccco2)cc1` (stereo not drawn) to `Brc1ccc(COc2cccc3cccnc23)cc1`, the “% Inhibition @ 10 uM” value falls from 2.9% to 0.726%.

Compared with `COc1ccc(/C(O)=C/C=N/c2ccccc2C(=O)c2ccccc2)cc1`, `Cc1cc(=O)n(C(=O)c2ccccc2)c(=O)n1C(=O)c1ccccc1` is higher in “% Inhibition @ 10 uM” value: -2.88% for the first, 5.55% for the second.

Going from `COc1ccc(CCNC(=O)CCCn2ncn3c(cc4occc43)c2=O)c(OC)c1` to `COc1ccc(CCNC(=O)Cn2nc(C)n3c(cc4c(OC)cccc43)c2=O)c(OC)c1`, the “% Inhibition @ 10 uM” value falls from 3% to -5.32%.

Compared with `O=C1NC(=O)/C(=C\c2ccc(Cl)s2)N1`, `C=CCNc1nc2c(C)cccn2c(=O)c1/C=C1\SC(=S)NC1=O` is higher in “% Inhibition @ 10 uM” value: -0.178% for the first, 15.9% for the second.

First: Cc1ccccc1CN1CCN(CC(=O)NCCC2=CCCCC2)C1=O
Second: O=C(CSc1c2c(nc3ccc(Cl)cc13)CCCC2)NCCCN1CCCC1=O
The “% Inhibition @ 10 uM” value of the first is higher: -0.148% for the first, -9.16% for the second.

Compared with `O=C(O)CC(NCc1ccccc1)c1ccccc1` (stereo not drawn), `O=C(NCCO)C(c1ccccc1)c1ccccc1` is higher in “% Inhibition @ 10 uM” value: -5.85% for the first, 0.247% for the second.

Going from `COc1ccc(-c2cc3nc4n(c(=O)c3s2)CCC4)cc1` to `COc1ccc2cc3cc(C(=O)NCCCOC(C)C)sc3nc2c1`, the “% Inhibition @ 10 uM” value falls from 1.08% to -1.83%.

First: CCOC(=O)c1nn2c(C(F)(F)F)cc(-c3cccs3)nc2c1Cl
Second: CCOC(=O)C1=C(C)N=c2s/c(=C/c3cccnc3)c(=O)n2C1c1ccc(OC)cc1 (stereo not drawn)
The “% Inhibition @ 10 uM” value of the first is lower: 4.52% for the first, 6.11% for the second.

First: CCOC(=O)c1c(NC(=O)c2cccc(F)c2)sc(C(=O)NC2CCCC2)c1C
Second: CCC1CCc2c(sc(NC(=O)Nc3cccc(C)c3)c2C(N)=O)C1 (stereo not drawn)
The “% Inhibition @ 10 uM” value of the first is higher: 0.565% for the first, -2.82% for the second.

Compared with `Cc1cc(C)n(-c2nnc(C)n2/N=C/c2ccsc2)n1`, `COc1cccc(CNc2ccc(C)c(C)c2)c1` is lower in “% Inhibition @ 10 uM” value: 0.561% for the first, -7.11% for the second.

First: CCOc1ccccc1CNc1ccc(O)cc1
Second: COc1ccc(-c2ccccc2)cc1NCc1ccncc1
The “% Inhibition @ 10 uM” value of the first is lower: -2.83% for the first, -0.446% for the second.

Compared with `Cn1ncc(Cl)c1C(=O)N1CCN(c2cccc(Cl)c2)CC1`, `O=C(c1ccco1)N1CCN(S(=O)(=O)c2c[nH]cn2)CC1` is higher in “% Inhibition @ 10 uM” value: -5.07% for the first, -1.05% for the second.

Going from `CCCCCCCc1ccc(-c2noc(CCCCC)n2)cc1` to `CCN(CC)CCN(CC)Cc1cccc(Cl)c1Cl`, the “% Inhibition @ 10 uM” value rises from -6.78% to 1.9%.

First: CN1CCC(N(C)Cc2ccc(Br)s2)CC1
Second: CN1CCC(NCCN2CCCCC2)CC1
The “% Inhibition @ 10 uM” value of the first is lower: -2.56% for the first, 0.472% for the second.

Compared with `Cc1ccccc1Nc1cccc2nonc12`, `COc1ccc(Cn2c(CO)nc3ccccc32)cc1OC` is lower in “% Inhibition @ 10 uM” value: -3.27% for the first, -7.55% for the second.

Compared with `COc1ccc(S(=O)(=O)NC2CC(C)(C)NC(C)(C)C2)c(C)c1C`, `CCC(=O)c1cc2c(C)cc(=O)oc2c(C)c1OC` is higher in “% Inhibition @ 10 uM” value: -3.13% for the first, 1.25% for the second.

First: O=S1(=O)C(/C=N/Cc2cccnc2)=C(O)c2sccc2N1Cc1ccc(F)cc1
Second: Cc1ccc(S(=O)(=O)N(CC(=O)Nc2cccnc2)c2cccc(C(F)(F)F)c2)cc1
The “% Inhibition @ 10 uM” value of the first is higher: -4.41% for the first, -5.5% for the second.

Compared with `N#Cc1cc2c(=O)n3ccccc3nc2n(CCCn2ccnc2)c1=N`, `O=c1oc2ccccc2n1CCc1ccccc1` is lower in “% Inhibition @ 10 uM” value: -0.169% for the first, -0.968% for the second.

First: CCOC(=O)C1CCN(C2CCC(CC)CC2)CC1 (stereo not drawn)
Second: CC1CCCCC1N1CN=C(Nc2nc3ccccc3o2)NC1 (stereo not drawn)
The “% Inhibition @ 10 uM” value of the first is lower: -3.15% for the first, 3.73% for the second.

First: Cc1cc(C)cc(NC(=O)c2ccc([N+](=O)[O-])o2)c1
Second: CCOC(=O)c1c(NC(=O)C2=CC(c3ccc(C)cc3)=NS(=O)(=O)N2C)sc(C)c1C
The “% Inhibition @ 10 uM” value of the first is higher: 3.48% for the first, -2.84% for the second.

Compared with `COc1ccc(CN2CCN(c3ccccc3OC)CC2)c(OC)c1`, `CCN1C/C(=C\c2ccc(OC)c(OC)c2)C(=O)/C(=C/c2ccc(OC)c(OC)c2)C1` is higher in “% Inhibition @ 10 uM” value: 0.00519% for the first, 4.06% for the second.

Compared with `N#CCC(=O)N1CCN(C/C=C/c2ccccc2)CC1`, `O=C(CCCOc1ccc(Cl)cc1)N1CCOCC1` is lower in “% Inhibition @ 10 uM” value: 2.08% for the first, 0.222% for the second.

Going from `N#CC1(S(=O)(=O)c2ccccc2)CCCCC1` to `c1ccc2c(c1)nc(SC1CCCCC1)c1nncn12`, the “% Inhibition @ 10 uM” value rises from 0.035% to 3.99%.

Compared with `CN1C(=O)C2(C(C#N)=C(N)N(c3cc(Cl)cc(Cl)c3)C3=C2C(=O)CCC3)c2ccccc21` (stereo not drawn), `O=C(NC1CCCCC1)c1ccc(C2SCC(=O)N2CCc2ccccc2)cc1` (stereo not drawn) is lower in “% Inhibition @ 10 uM” value: 5.59% for the first, -1.18% for the second.

Going from `CCCn1c(CN2CCCC(C)C2)nc2c1c(=O)n(C)c(=O)n2C` (stereo not drawn) to `CCCN1CCN(c2ccc(C(=O)NC3(C(=O)N[C@@H](CCc4ccccc4)CS(=O)(=O)Nc4ccc(OC)cc4)CCCCC3)cc2)CC1`, the “% Inhibition @ 10 uM” value falls from 2.9% to -6.46%.

In the case of `OCCCc1cn(Cc2ccccc2)c2ccccc12`, the “% Inhibition @ 10 uM” value is reported as 1.54%.
